Measurements: PubChem BioAssay AID624417 (National Center for Advancing Translational Sciences (NCATS), 2012)
In all, about 410,000 compounds went through this assay and about 6,400 (1.6%) were called active. Inconclusive results, whose numbers are uncertain, are shown with a selection of clear calls. Calls come from the whole dose curve; as a rule, active = well fitted inhibition curve with a large enough effect; inconclusive = small, poorly fitted or top-dose-only effect; inactive = no such curve, though single readings can be large or run the other way. Potencies beside an inconclusive call are fits to weak or partial responses and may not hold up.

Each compound was assayed against Glucagon-like peptide 1 receptor (Homo sapiens) (UniProt P43220) (assay: qHTS of GLP-1 Receptor Inverse Agonists (Inhibition Mode)). Settings: HEK293 GLP-1R CRE-luciferase, luminescence, 24 h, GLP-1R form is constitutively active; series mostly up to 38.3 µM.
UniProt P43220, sequence (P43220 whole entry, looked up): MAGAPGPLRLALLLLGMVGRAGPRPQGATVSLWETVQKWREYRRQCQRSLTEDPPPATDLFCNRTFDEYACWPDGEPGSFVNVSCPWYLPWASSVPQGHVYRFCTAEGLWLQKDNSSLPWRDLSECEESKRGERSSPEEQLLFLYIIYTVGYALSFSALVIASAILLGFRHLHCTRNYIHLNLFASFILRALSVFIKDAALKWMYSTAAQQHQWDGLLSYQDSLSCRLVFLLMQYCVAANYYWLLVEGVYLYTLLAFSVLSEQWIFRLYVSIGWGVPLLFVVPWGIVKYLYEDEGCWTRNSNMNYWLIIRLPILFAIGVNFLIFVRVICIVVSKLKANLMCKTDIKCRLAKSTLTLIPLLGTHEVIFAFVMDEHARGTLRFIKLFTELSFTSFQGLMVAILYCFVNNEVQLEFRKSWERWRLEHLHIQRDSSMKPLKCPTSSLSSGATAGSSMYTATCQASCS
Summary of the method: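 Readout was luciferase luminescence, measured 12 min after detection reagent at room temperature. Beforehand, GLP-1R reporter HEK293 cells had sat 12 h, then received compounds for 24 hr at 37 deg C.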
Note: nearly all actives have a fitted effect of over 55% in size.
Potency is the fitted concentration of half-maximal effect; tags give direction and shape of the fitted curve.

Potency, inconclusive:
CCC(C(=O)NCc1ccccc1)n1c(Cc2cc(F)cc(F)c2)nc2ccccc21 (configuration not stated) 8.91 µM [inhibitor, partial curve, poor fit], Cc1ccc(NC(=O)NC2CCCc3ccccc32)cc1 (configuration not stated) 28.2 µM [inhibitor, single point], COc1ccccc1N1CCN(C(=O)Nc2ccc([N+](=O)[O-])cc2)CC1 28.2 µM [inhibitor, single point], COc1ccc(C2C(C#N)=C(N)N(Nc3ccccc3)C3=C2C(=O)CC(C)(C)C3)cc1C (configuration not stated) 31.6 µM [inhibitor, partial curve, poor fit], COc1cccc(NC(=O)CNC(C)CCC(C)C)c1 (configuration not stated) 22.4 µM [inhibitor, single point], CCC1CCCCN1C(=O)CSc1nnc(-c2ccc3c(c2)OCCO3)o1 (configuration not stated) 28.2 µM [inhibitor, single point], CC(C)(C)c1ccc(CNc2cc(N3CCOCC3)ccc2[N+](=O)[O-])cc1 7.94 µM [inhibitor, partial curve, poor fit], CCN(CC)S(=O)(=O)c1ccc(-c2csc(C)n2)s1 10 µM [inhibitor, partial curve, poor fit], Cc1ccc(C(=O)Nc2ccn(C)n2)cc1 14.1 µM [inhibitor, partial curve, poor fit], CCCCCCSc1cc(-c2nc3cnccn3c2NCc2ccccc2)ccc1OC 28.2 µM [inhibitor, single point], CCCn1c(=O)c(C(=O)NCc2ccccn2)c(O)c2ccccc21 3.55 µM [inhibitor, partial curve, poor fit], O=C1CCCCC1Sc1nnc(Nc2ccccc2)s1 (configuration not stated) 8.91 µM [inhibitor, partial curve], CCOC(=O)C1=CC[C@@H](c2ccccc2)N(S(=O)(=O)c2ccc(C)cc2)[C@H]1/C=C/c1ccccc1 10 µM [inhibitor, partial curve, poor fit], COc1ccc(-c2noc(CCC(=O)Nc3ccc(C(F)(F)F)cc3)n2)cc1 28.2 µM [inhibitor, single point], CCN(Cc1ccc2c(c1)OCO2)C(=O)/C=C/c1cccc(Br)c1 11.2 µM [inhibitor, partial curve, poor fit], O=C1CC(NS(=O)(=O)c2ccc([N+](=O)[O-])cc2)CN1c1ccc(Cl)cc1 (configuration not stated) 11.2 µM [inhibitor, partial curve], CC1CC(C)CN(c2cc(=O)n(Cc3ccc(F)cc3)c(=O)[nH]2)C1 (configuration not stated) 7.08 µM [inhibitor, partial curve, poor fit], CC(C)(C)OC(=O)[C@H](Cc1ccccc1)NC(=O)c1[nH]cnc1C(=O)N[C@@H](Cc1ccccc1)C(=O)OCc1ccccc1 22.4 µM [inhibitor, partial curve, poor fit], CCN(CC)S(=O)(=O)c1cc(NC(=O)COC(=O)c2c(C)noc2C)ccc1C 7.08 µM [inhibitor, partial curve, poor fit], COc1ccc2nc3n(c(=O)c2c1)-c1cc2ccccc2cc1C(=O)NC3Cc1ccccc1 (configuration not stated) 2.24 µM [inhibitor, full curve, poor fit], CCN(CCCNC(=O)CN1C(=O)COc2ccccc21)c1cccc(C)c1 28.2 µM [inhibitor, single point], CCN(CC)S(=O)(=O)c1ccc2c(c1)C(=NO)c1cc(S(=O)(=O)N(CC)CC)ccc1-2 3.98 µM [inhibitor, full curve, poor fit], Cc1ccc2nc(-c3ccc(NS(=O)(=O)c4ccc(F)c(F)c4)cc3)sc2c1 17.8 µM [inhibitor, single point], CC1CCN(CCOCCSc2ccc(Cl)cc2)CC1 28.2 µM [inhibitor, single point], CN(C)c1nc(=Nc2cccc(Cl)c2)ss1 0.501 µM [inhibitor, full curve, poor fit], CC(=O)Nc1ccc(CN2CCc3c([nH]c4ccccc34)C2c2ccccn2)cc1 (configuration not stated) 10 µM [inhibitor, partial curve, poor fit], Cc1cc(C)c(S(=O)(=O)Nc2ccccc2C(=O)N2CCCC2)c(C)c1 11.2 µM [inhibitor, partial curve, poor fit], Cc1cccc(NC(=S)NC2CC3CCCC(C2)N3Cc2ccccc2)c1C (configuration not stated) 10 µM [inhibitor, partial curve, poor fit], COc1ccccc1NC(=S)N(Cc1ccco1)Cc1cc2cc(C)cc(C)c2[nH]c1=O 11.2 µM [inhibitor, single point], CC(C)[C@H](NC(=O)N1CCC(Cc2ccccc2)CC1)C(=O)O 6.31 µM [inhibitor, partial curve, poor fit], Cc1ccc(NC(=O)COc2coc(CN3CCc4ccccc43)cc2=O)c(C)c1 10 µM [inhibitor, partial curve, poor fit], Cc1ccccc1NC(=O)CSc1cn(CC(=O)N(C(C)C)C(C)C)c2ccccc12 10 µM [inhibitor, single point], CCCCNS(=O)(=O)c1ccc(Br)cc1N1CCC[C@H]1CO 22.4 µM [inhibitor, single point], COc1cccc(NC(=O)C2(C)CCN2Cc2ccc(-c3ccccc3)o2)c1 (configuration not stated) 22.4 µM [inhibitor, single point], CC1CCN(CCCCOc2ccc(C(C)(C)C)cc2)CC1 28.2 µM [inhibitor, single point], CCCCOc1ccccc1C1C(C(=O)OC)=C(C)N(C)C(C)=C1C(=O)OC 10 µM [inhibitor, partial curve, poor fit], Cc1ccc(N2CCN(S(=O)(=O)c3ccc(Cl)s3)CC2C)cc1 (configuration not stated) 11.2 µM [inhibitor, partial curve, poor fit], CC(C)c1ccc(NC2=NCC(=O)N2Cc2cccs2)cc1 3.98 µM [inhibitor, partial curve, poor fit], CC1CCN(c2ccccc2NC(=S)NC(=O)C(C)(C)C)CC1 28.2 µM [inhibitor, single point], C=CC[C@H]1C(C(=O)OCC)=CC[C@@H](c2ccccc2)N1S(=O)(=O)c1ccc(C)cc1 14.1 µM [inhibitor, single point], CCOc1cccc(C2CC(=O)Nc3cc4c(cc32)OCCO4)c1 (configuration not stated) 3.98 µM [inhibitor, partial curve], CCc1nc2c(OCCC3CCCCC3)cccn2c1N(C)C(=O)C1CC1 15.8 µM [inhibitor, partial curve, poor fit], CCOC(=O)c1c(-c2ccccc2)csc1NC(=O)c1nn(CC)cc1Br 31.6 µM [inhibitor, single point], Cc1ccc(C(=O)Nc2ccc(C(=O)N/N=C/c3c[nH]c4ccccc34)cc2)cc1 28.2 µM [inhibitor, single point], CCOc1ccc(/C=C2\SC(=S)N(CC(=O)N(CCO)C(C)(C)C)C2=O)cc1 10 µM [inhibitor, partial curve, poor fit], CC[n+]1ccc(/C=C/c2c[nH]c3ccccc23)cc1 12.6 µM [inhibitor, partial curve, poor fit], O=C(/C=C/c1ccccc1Br)c1ccc2c(c1)OCO2 8.91 µM [inhibitor, partial curve], COc1cc(NC(=O)COc2ccc(C)c(C)c2)ccc1NC(=O)c1ccco1 28.2 µM [inhibitor, single point], O=C(C1CCCCC1)N1CCCC(c2nc3c(nnn3Cc3ccccc3)c(=O)[nH]2)C1 (configuration not stated) 0.501 µM [inhibitor, full curve, poor fit]

Potency, inactive:
Cc1ccc(C(=O)Nc2nc(COc3ccccc3)cs2)s1, COCCCNC(=O)c1cn(CCOC)c(=O)c2c1c1ccccc1n2C, Cn1c(/C(C#N)=C(\O)c2ccc(Br)s2)nc2ccccc21, COc1ccc(-n2ncc3c2CC(C)(C)CC3NC(=O)c2cn[nH]c2)cc1 (configuration not stated), N/C(=N\OC(=O)c1ccc(F)cc1)c1cccc([N+](=O)[O-])c1, CC(=O)Nc1nnc(-c2ccccn2)o1, COc1cc2c(cc1OC)C(COc1ccc3c(C)cc(=O)oc3c1)N(C(=O)c1ccccc1F)CC2 (configuration not stated), CC(O)CNCc1ccc(-c2ccccc2)cc1 (configuration not stated), O=C(O)c1ccccc1-c1nc(-c2ccccc2)c(-c2ccccc2)[nH]1, O=C(CCCn1c(=O)[nH]c2ccsc2c1=O)N1CCN(c2ccccn2)CC1, Cc1cccc(-n2ncc3c(NCCCO)ncnc32)c1

Potency, active:
O=C1NCC(c2ccccc2)C1C(=O)N/N=C\c1ccc(-c2ccc(Cl)c(Cl)c2)o1 (configuration not stated) 10 µM, CC1CC(C)CN(S(=O)(=O)c2ccc(C(=O)NCc3ccc4c(c3)OCO4)cc2)C1 (configuration not stated) 10 µM
